From PMC4242493 come the findings set out here.

The list shows a part of the results. The list includes weakly bound sequences.

This assay has as its target MaxL homodimer (UniProt P61244). Briefly: universal protein-binding microarray (PBM). Conditions: PBS-based mixture, 10 nM His-tagged protein dimer, 2% milk, 200 ng/uL BSA, 50 ng/uL salmon testes DNA, 0.02% TX-100; detection with Alexa 488 anti-His …; high values mean tight binding; most listed sequences are background and not binding sites; double strand, one strand shown.
UniProt P61244, sequence (P61244 whole entry): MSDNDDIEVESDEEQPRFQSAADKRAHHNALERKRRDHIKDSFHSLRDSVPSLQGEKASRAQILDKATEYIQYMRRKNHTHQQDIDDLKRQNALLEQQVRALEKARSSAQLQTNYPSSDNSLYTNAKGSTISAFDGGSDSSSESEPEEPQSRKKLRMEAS
Consider CAGCCATA, for which the binding signal (normalized occupancy) came out at 0.0782. Then AACCCCAG, with 0.0791. As to AACGAGAT, the binding signal (normalized occupancy) stood at 0.0745.

Take ACCCGAAG: the binding signal (normalized occupancy) turned out to be 0.0738. For ATGGCACG, the binding signal (normalized occupancy) is 0.0985. In the case of CGCCTTTC, the binding signal (normalized occupancy) came out at 0.0692. The figure for CCCGACTA is 0.0677; for CGTCTTTC it is 0.0742; for GACCATAA it is 0.0831.

With ACATGTCC, the binding signal (normalized occupancy) is 0.0918. The figure for ACGAAAGG is 0.074; for CAGATACC it is 0.0814. The figure for CGTCTCAG is 0.0684; for ACGGGGGC it is 0.0822; for GTGAATGA it is 0.0863. Take ATCATTAC: the binding signal (normalized occupancy) was found to be 0.0816. Take CGAGTTAC: the binding signal (normalized occupancy) stood at 0.0701.

For AACTGACG, the binding signal (normalized occupancy) worked out at 0.0702.

CCTGACCG: the binding signal (normalized occupancy) worked out at 0.0715.

As for GTCTCGAA, the binding signal (normalized occupancy) was found to be 0.072.

GTATACTA: the binding signal (normalized occupancy) was 0.0768. The figure for CCTGGCCA is 0.075; for ACGCAGAG it is 0.0689. Then ACAGCTAA, with 0.0743; and ATCAATTA, with 0.0797. As for CTTGTCTC, the binding signal (normalized occupancy) amounted to 0.0682. The figure for AGGGATCA is 0.0775; for AATATTTG it is 0.0793. On to AGTGCTTG, for which the binding signal (normalized occupancy) was determined as 0.0725. Then CAGTTAGA, with 0.0676; and GTACGTAA, with 0.0761; and CGGTGGTC, with 0.0775. The figure for CGTTCGAG is 0.0712; for CCCTCCAC it is 0.0803. Take CCGGGCAA: the binding signal (normalized occupancy) was 0.0681. ATGACCAT: the binding signal (normalized occupancy) stood at 0.0816.

Turning to AAAGCTCG, the binding signal (normalized occupancy) was found to be 0.0667. Turning to AGTAAAAG, the binding signal (normalized occupancy) came to 0.0753.

Take GCAGCTTA: the binding signal (normalized occupancy) turned out to be 0.0685.

Take AGACACAG: the binding signal (normalized occupancy) was found to be 0.0736. As to CCTACGCC, the binding signal (normalized occupancy) turned out to be 0.0691. On to GGTCGCAC, for which the binding signal (normalized occupancy) is 0.0729. With ACAAGAGT, the binding signal (normalized occupancy) worked out at 0.0745. The figure for GACGCAAA is 0.0697. Then CAGGAAGG, with 0.0681; and AAAGATGG, with 0.0775.

Turning to CATACACA, the binding signal (normalized occupancy) stood at 0.0892. The figure for ATGTGGAC is 0.0955; for ACGGGCCG it is 0.0711. Then GTCTGCAA, with 0.0724; and GACCTCAA, with 0.0768. The figure for TAACTAAA is 0.0724. For ACCTGATA, the binding signal (normalized occupancy) stood at 0.0851. As to AAGGGAAT, the binding signal (normalized occupancy) was determined as 0.0759. The figure for AGTGTCGA is 0.0699; for ACTATAGC it is 0.0765; for ACCCTGTA it is 0.0791. Then AACCCGAC, with 0.0723. With CCCTTGCC, the binding signal (normalized occupancy) was found to be 0.0707. The figure for AACACCCT is 0.0716; for CTCTGCCC it is 0.0694; for ATCAGTGG it is 0.0756. As to ACAAAATG, the binding signal (normalized occupancy) was determined as 0.0808. On to AGATCCCG, for which the binding signal (normalized occupancy) is 0.0705. For the sequence CATCACGC, the binding signal (normalized occupancy) was determined as 0.0961. Regarding CACCGTGG, the binding signal (normalized occupancy) turned out to be 0.0891.

CTTCTAGA: the binding signal (normalized occupancy) came out at 0.0721. Then CCACGTCC, with 0.0838; and ACTAAAAA, with 0.0699; and CAAATTCG, with 0.0697.

For CCCGGGAG, the binding signal (normalized occupancy) was found to be 0.064. The figure for AATATGGG is 0.0882; for ACACTATG it is 0.0843. The figure for ACCCATAC is 0.0841; for AAGGAACA it is 0.0727. Then ATAAGATG, with 0.0814. On to CGCGCTAA, for which the binding signal (normalized occupancy) worked out at 0.075. The figure for CAATTTGG is 0.0724; for ATGCCGCG it is 0.0774. Then CTCTGCTA, with 0.0648.

In the case of CATCTCCC, the binding signal (normalized occupancy) is 0.0761. Then CAATACCG, with 0.0718; and CAGGATGG, with 0.0763. Then CACGAAAC, with 0.0765; and ACGTTGGC, with 0.0786.

Take CCCTCGTC: the binding signal (normalized occupancy) amounted to 0.0691.

Turning to CGTAGCCC, the binding signal (normalized occupancy) was found to be 0.0704.

As to CGGCGTAA, the binding signal (normalized occupancy) is 0.0695. The figure for TGCCCCCA is 0.0819; for GCGGGGTA it is 0.0798; for CAAACAGC it is 0.0805.

With GGTGGTCA, the binding signal (normalized occupancy) turned out to be 0.0825. Then AATCAAGA, with 0.0796; and CGTACTCC, with 0.0728. On to GAGTAGGC, for which the binding signal (normalized occupancy) is 0.0728. The figure for ACTGATGG is 0.0747.

Turning to AAATAGTG, the binding signal (normalized occupancy) stood at 0.0749. Then GGGTCTCA, with 0.0791. Then ATTTGGGC, with 0.0746.

For the sequence CCAGTCTC, the binding signal (normalized occupancy) is 0.0689. With AGGCATCC, the binding signal (normalized occupancy) was found to be 0.0757. The figure for GCGCTCCA is 0.0703; for CAGGGTGA it is 0.0768.

Regarding CTAGTTTC, the binding signal (normalized occupancy) worked out at 0.0731. Then AGGGAGCG, with 0.0763; and AACAGCCC, with 0.0779; and AGTCCTTC, with 0.0668.

As for CTGAAAAG, the binding signal (normalized occupancy) was found to be 0.076.

For ACTGAAGA, the binding signal (normalized occupancy) came to 0.0728. The figure for GGGGACTA is 0.0794.

As for CGTGACAA, the binding signal (normalized occupancy) stood at 0.0897. Then CAGTTACC, with 0.0779; and CAAAAACA, with 0.0734. The figure for ATCCGTAA is 0.0755. Then ATCATAGC, with 0.0844; and ATAACGGA, with 0.0785.

For TAACGGAA, the binding signal (normalized occupancy) was determined as 0.0745. Consider ATAACATC, for which the binding signal (normalized occupancy) was determined as 0.0807. Then ACACTGCC, with 0.0703; and AGGGCCAG, with 0.0667. Then GCCCGTAC, with 0.0723; and GCAGTCGC, with 0.0722; and CAAGAGTG, with 0.0796. For ACACTAGA, the binding signal (normalized occupancy) came to 0.0732. The figure for CCCGCGGA is 0.0697; for ATAGATGG it is 0.0848; for CTCCCGGC it is 0.0667. Then CACAGGAC, with 0.0734. AGAGCCAA: the binding signal (normalized occupancy) was found to be 0.0676. Then CCGTCGCA, with 0.0728.

As for CGAGTACC, the binding signal (normalized occupancy) turned out to be 0.0756. For ACTGGAGC, the binding signal (normalized occupancy) amounted to 0.0725. As to ACGCCTCG, the binding signal (normalized occupancy) came out at 0.0686. As to CGGGGCCC, the binding signal (normalized occupancy) worked out at 0.0716. Then ATGGCGGC, with 0.0766; and TGGCAGAA, with 0.0752.

For the sequence ATCCCTAG, the binding signal (normalized occupancy) was found to be 0.076. The figure for ACAGGGGA is 0.083; for AGACAACG it is 0.0817; for ACCCCCAC it is 0.087. The figure for CATGGGAA is 0.0896; for ATATCGTG it is 0.082; for CAATTGAC it is 0.0785.

For AGGCCTAT, the binding signal (normalized occupancy) was determined as 0.0738. The figure for GCCTGAAC is 0.0731; for GGCACTTA it is 0.073; for GGTGGCGA it is 0.0776.

For CGCATTAC, the binding signal (normalized occupancy) was determined as 0.0795. Then CATCTCAG, with 0.0737; and CAGAAGAA, with 0.0674.

GATTGCGC: the binding signal (normalized occupancy) came out at 0.0751. Then CCCATCGA, with 0.0763; and GGCATAAC, with 0.0762. Then CACGATCA, with 0.0839; and CAGCAAGC, with 0.0694. The figure for AGGGATGG is 0.0796. Turning to CTTCATTC, the binding signal (normalized occupancy) turned out to be 0.0783.

With CCAACTTA, the binding signal (normalized occupancy) turned out to be 0.0703. Then ACATCCCG, with 0.0795. The figure for GTTAGTCA is 0.0738; for ACTCAGCA it is 0.0693. Then ACTTAAGC, with 0.0746; and AATCAGAC, with 0.0728; and CCTATGCG, with 0.0749. On to GAGGAAAA, for which the binding signal (normalized occupancy) worked out at 0.0732.

For the sequence ACATACCA, the binding signal (normalized occupancy) came to 0.0864. The figure for GATGGCAC is 0.0772; for GATGTAAA it is 0.082; for GACAATCC it is 0.0715. The figure for CCGTTAGC is 0.0718. Then AGCAAACG, with 0.0718; and AGCCTTAA, with 0.0674.
